# Where “and” joins values, the source holds several entries; their conditions need not be identical. Equal values may be shown once. Among all 150,000 compounds or so, about 6,500 (4.3%) were called active. This list was built around the results that the source calls inconclusive (neither active nor inactive); the mix of calls is not that of the screen. The call rests on the fitted dose curve; in most records, active means well fitted inhibition curve with a large enough effect (not every such curve was filed as active); inconclusive means small, poorly fitted or top-dose-only effect, or another doubt; inactive means no such curve, though single readings can be large or run the other way. No potency is given beside an inconclusive call; the fits are too rough.
# Target: 15-hydroxyprostaglandin dehydrogenase [NAD(+)] (Homo sapiens) (UniProt P15428)
# Test: qHTS Assay for Inhibitors of HPGD (15-Hydroxyprostaglandin Dehydrogenase)
# Conditions: purified HPGD, NADH fluorescence kinetic, PGE2 substrate; activity change, negative = inhibition: hits give low values
# Method in brief: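 NADH formation kinetics: reaction with 30 uM PGE2 and 1 mM NAD+ (final), 20 nM enzyme, Tris-HCl pH 8 with Tween 20, after 15 min compound preincubation at room temperature. Fluorescence change, last versus first of five reads.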
# On the % scale 0 is the no-effect control and ±100 the full control effect; potency means the concentration at half of the fitted maximal effect; tags describe the fitted curve by direction and shape.
# UniProt P15428, sequence (P15428 whole entry, looked up): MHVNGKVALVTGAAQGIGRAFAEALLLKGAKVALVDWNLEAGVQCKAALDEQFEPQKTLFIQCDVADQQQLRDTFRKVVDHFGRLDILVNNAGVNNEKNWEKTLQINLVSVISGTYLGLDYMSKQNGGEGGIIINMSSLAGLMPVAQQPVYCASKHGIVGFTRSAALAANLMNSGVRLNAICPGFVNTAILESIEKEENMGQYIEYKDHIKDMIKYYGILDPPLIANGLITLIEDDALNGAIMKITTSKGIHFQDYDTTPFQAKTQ
SMILES,Potency,"activity change, negative = inhibition"
Cc1cccc(C(=O)c2cnc3ccccc3c2-c2ccccc2)c1,"inconclusive [inhibitor, partial curve, poor fit]",–
Cc1cnc(C(=O)Nc2nccs2)cn1,–,inactive: -18.1%
CCOC(=O)C1CCN(C(c2cc3ccc(C)c(C)c3[nH]c2=O)c2nnnn2C2CCCCC2)CC1 (stereo not given),–,inactive: -22.6%
FC(F)(F)c1cc(CN2CC[C@@]3(CCCNC3)C2)cc(C(F)(F)F)c1,–,inactive: -3.29%
CCC(C)Sc1nc2c(c(=O)[nH]c(=O)n2C)n1CC(O)COc1cccc2ccccc12 (stereo not given),"inconclusive [inhibitor, partial curve, poor fit]",–
CC1CN(C(=O)N[C@@H](Cc2ccccc2)C(=O)O)CC(C)O1 (stereo not given in full),–,inactive: -1.14%
CCc1cc(=O)n2c([nH]c3ccccc32)c1C#N,"inconclusive [inhibitor, partial curve]",–
Cc1cc2cc(CN(Cc3ccc4c(c3)OCO4)C(=O)c3ccco3)c(=O)[nH]c2cc1C,"inconclusive [inhibitor, partial curve]",–
C=CCn1c(SCc2nc(N)nc(N3CCCCC3)n2)nnc1-c1ccco1,active: 15.8 µM,–
CCCC1Cc2nc(N3CCCCC3)c(C#N)cc2CO1 (stereo not given),"inconclusive [inhibitor, partial curve]",–
Cc1cc2c(C)cc(=O)oc2c2c1NCCC2,"inconclusive [inhibitor, partial curve]",–
CCOc1cc(C)c(Cl)cc1S(=O)(=O)NCc1ccc2c(c1)OCO2,–,inactive: -9.77%
CN(C)CCN(C(=O)/C=C/c1cccs1)c1nc2ccc(F)cc2s1,"inconclusive [inhibitor, partial curve]",–
CCCC(C(=O)NCc1ccco1)N(C(=O)CNS(=O)(=O)c1ccccc1)c1ccccc1OC (stereo not given),–,inactive: -15.7%
COc1cccc(C(=O)COc2cccc(NC(=O)c3cccc([N+](=O)[O-])c3)c2)c1,"inconclusive [inhibitor, partial curve]",–
Cc1cc(=O)oc(C)c1C(=O)Nc1ccc2nsnc2c1,"inconclusive [inhibitor, single point]",–
O=C(CSc1nc2ccccc2c(=O)n1Cc1ccc(C(=O)NC2CC2)cc1)NCc1ccco1,active: 2.82 µM,–
CC1=CCC[C@@H]2[C@@](C)(CC/C(C)=C/C(=O)O)[C@H](C)CC[C@@]12C,"inconclusive [inhibitor, single point]",–
CCC/C(=N/NC(=O)c1ccc2c(c1)OCO2)c1cccs1,active: 15.8 µM,–
CCCN(CCC)C(=O)CCSCCC(=O)N(CCC)CCC,"inconclusive [inhibitor, single point]",–
Cc1cc(C(=O)NN)c2cc(Br)ccc2n1,–,inactive: -28.3%
CC1CCCN(C2=NC(=O)/C(=C/c3cn(-c4ccccc4)nc3-c3cccc(S(=O)(=O)N(C)C)c3)S2)C1 (stereo not given),"inconclusive [inhibitor, partial curve]",–
CN1CC=C2C(C#N)=C(N)C(C#N)(C#N)[C@H](c3cccs3)[C@H]2C1,"inconclusive [inhibitor, single point]",–
CCOC(=O)c1sc2nc(N3CCOCC3)c3c(c2c1N)CCCC3,"inconclusive [inhibitor, partial curve]",–

SMILES,Potency,"activity change, negative = inhibition"
CCOC(=O)CSc1nc2c(c(=O)n1-c1ccc(OC)cc1)SCC2,–,inactive: -0.38%
O=C(CN(c1ccccc1)S(=O)(=O)c1ccccc1)Nc1ccccc1C(=O)NCc1ccco1,"inconclusive [inhibitor, partial curve]",–
CNc1cc(OC)c(C(=O)N[C@@H]2CCN(Cc3ccccc3)[C@H]2C)cc1Cl,–,inactive: -16.4%
CC1(C)Cc2c(C#N)c(N3CCCC3)nc(-c3ccco3)c2CO1,"inconclusive [inhibitor, partial curve]",–
CCCCOC(=O)C1CN(c2ccccc2)N=C1C(=O)OCC (stereo not given),"inconclusive [inhibitor, partial curve]",–
N#Cc1cc(N)ccc1Sc1ccccc1,"inconclusive [inhibitor, partial curve]",–
Cc1ccc(C2=NN=C(NC(=O)CSc3nnc4c5ccccc5n(C)c4n3)SC2)cc1,"inconclusive [inhibitor, partial curve]",–
CC12C=C(/C=C/c3ccc(Br)cc3)C(C)(C1)[C@H](c1ccc(Br)cc1)CC2=O (stereo not given in full),–,inactive: -3.92%
COCCN(CCOC)c1nc(C)nc2c1nc(-c1ccccc1)n2CCN(C)C,"inconclusive [inhibitor, partial curve]",–
COc1cccc(-c2nn(C)c3sc(C(=O)NCc4ccc(C)cc4)cc23)c1,"inconclusive [inhibitor, single point]",–
CCc1ccc(OCC(=O)Nc2ccc(-c3nc4ccccc4o3)c(O)c2)cc1,"inconclusive [inhibitor, partial curve]",–
N#Cc1c(C(F)(F)F)cc(-c2ccco2)nc1SCc1ccncc1,"inconclusive [inhibitor, partial curve]",–
CCOC(=O)c1cnn(-c2cc(C(C)(C)C)nc3c(-c4ccccc4)c(C)nn23)c1N,–,inactive: -4.8%
COCCNC(=O)Cn1c(=O)n(Cc2ccc(C(=O)NCc3ccco3)cc2)c(=O)c2ccccc21,"inconclusive [inhibitor, partial curve]",–
Cc1c(NC(=O)c2ccc3ncccc3c2)c(=O)n(-c2ccccc2)n1C,–,inactive: -8.38%
Clc1ccccc1OCc1nn2c(-c3ccncc3)nnc2s1,active: 3.98 µM,–
Cc1ccn2c(NC(=O)C(C)(C)Oc3ccc(Cl)cc3)c(-c3cccs3)nc2c1,"inconclusive [inhibitor, partial curve]",–
COc1ccc(C(=O)N/N=C/c2ccc(OC)c(CN3CCCc4ccccc43)c2)cc1,"inconclusive [inhibitor, partial curve]",–
Cn1c(Br)nc2c1c(=O)n(CC(O)COc1ccccc1)c(=O)n2C (stereo not given),–,inactive: -9.39%
Cc1ccc(C(=O)OCC(=O)c2ccc(Cl)s2)s1,active: 15.8 µM,–
O=S(=O)(c1ccc(Cl)cc1)N1CCN(c2nc(-c3cccs3)nc3ccccc23)CC1,"inconclusive [inhibitor, partial curve]",–
COC(C(=O)Nc1ccc(S(=O)(=O)Nc2cccc3ccccc23)cc1)c1ccccc1 (stereo not given),–,inactive: -4.18%
CCOC(=O)c1sc(NC(=O)c2ccccc2OC)nc1C,"inconclusive [inhibitor, single point]",–
O=C(O)CCC(=O)N1CCc2cc(S(=O)(=O)NC3CCCC3)ccc21,active: 12.6 µM,–

SMILES,Potency,"activity change, negative = inhibition"
COC(=O)C(NC(=O)c1ccc(OC)cc1)(Nc1ncc(S(=O)(=O)c2ccc([N+](=O)[O-])cc2)s1)C(F)(F)F (stereo not given),active: 15.8 µM,–
Clc1ccc(CSc2nnc(-c3ccncc3)o2)cc1,–,inactive: -7.52%
CC(NC(=O)C1CC12CCC2)c1ccccc1 (stereo not given),"inconclusive [inhibitor, single point]",–
COc1ccc(CNC(=O)C2COc3ccccc3O2)c(OC)c1 (stereo not given),active: 4.47 µM,–
COc1ccc(OCC(=O)N/N=C(\C)c2ccc(-n3ccnc3)cc2)cc1,"inconclusive [inhibitor, partial curve]",–
CC(=O)Nc1nc2n(n1)C(c1ccc(Cl)cc1)C=C(C)N2 (stereo not given),"inconclusive [inhibitor, partial curve]",–
COc1cccc(CN(C)C(=O)c2ccc3nccnc3c2)c1,active: 28.2 µM,–
CCN(CC)CCCCn1c(-c2ccccc2)nc2c(NC3CCCCC3)nc(C)nc21,"inconclusive [inhibitor, partial curve]",–
Cn1nnnc1SCc1ccc(C(=O)Nc2ccccc2F)cc1,active: 15.8 µM,–
COc1ccc(/C=C2\SC(N3CCc4ccccc4C3)=NC2=O)cc1OC,"inconclusive [inhibitor, single point]",–
O=C1CCC(=O)N1c1ccc(CSc2nc3ccccc3[nH]2)cc1,–,inactive: -21.3%
O=C(c1sc2cc([N+](=O)[O-])ccc2c1Cl)N1CCCCC1,active: 1.12 µM,–
CC(C)c1c(O)nc(SCc2ccccc2)[nH]c1=O,"inconclusive [inhibitor, partial curve, poor fit]",–
COc1ccc(-c2cc3nc(C)cc(NCCO)n3n2)cc1,"inconclusive [inhibitor, single point]",–
COc1cc(NC(=O)Cn2nc(C(F)(F)F)c3c2CCCC3)cc(OC)c1OC,–,inactive: -4.14%
O=C(Cc1cccs1)NCc1ccc(F)cc1,active: 25.1 µM,–
O=C1C=CC2=C3c4cc(O)c(O)cc4CC3(O)COC2=C1O (stereo not given),active: 28.2 µM and active: 25.1 µM,–
COc1ccc(-n2c(Cc3cccn3C)nnc2SCC(=O)Nc2cccc(C)c2C)cc1,–,inactive: -10.8%
CC1CC(C)CN(C(=O)CCCn2c(=S)[nH]c3ccccc3c2=O)C1 (stereo not given),active: 25.1 µM,–
CCOc1c2ccc(C(=O)NCCCCc3ccccc3)cc2nn1C,"inconclusive [inhibitor, partial curve]",–
O=C(O)c1ccc(Sc2nnnn2-c2ccccc2)c([N+](=O)[O-])c1,"inconclusive [inhibitor, partial curve, poor fit]",–
COc1ccc(-c2nc(CNS(=O)(=O)c3cc(OC)ccc3OC)cs2)cc1,"inconclusive [inhibitor, partial curve]",–
